Assay results reported in PubChem BioAssay AID504333 (National Center for Advancing Translational Sciences (NCATS), 2011).
In all, about 360,000 compounds went through this assay and about 16,000 (4.4%) were called active. Inconclusive results, whose numbers are uncertain, are shown with a selection of clear calls. Calls follow the shape of the dose curve; as a rule, active = well fitted inhibition curve with a large enough effect; inconclusive = small, poorly fitted or top-dose-only effect; inactive = no such curve, though single readings can be large or run the other way. A potency beside an inconclusive call is a rough fit, not a confirmed value.

Target: Bromodomain adjacent to zinc finger domain protein 2B (Homo sapiens) (UniProt Q9UIF8)
Test: qHTS Assay for Inhibitors of BAZ2B; also: nearly all actives have a fitted effect of over 60% in size
Conditions: AlphaScreen BAZ2B-H3K14Ac peptide displacement; activity change, negative = inhibition: at 114 µM (top of the series) unless noted
How it was run: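 Protein-peptide AlphaScreen: BAZ2B 50 nM, b-H3K14Ac 50 nM, 1x PBS pH 7.4 + 0.01% Tween-20. Preincubation 30 min RT; cpd 30 min RT (top 110 uM); beads 20 min RT, light-protected.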
% is scaled to controls: 0 for no effect and ±100 for the full control effect; potency is read from the fitted curve at half-maximal effect; tags tell the direction and shape of the fitted curve.

Sequence of UniProt Q9UIF8 (Q9UIF8 whole entry, looked up, the tested form may be a part): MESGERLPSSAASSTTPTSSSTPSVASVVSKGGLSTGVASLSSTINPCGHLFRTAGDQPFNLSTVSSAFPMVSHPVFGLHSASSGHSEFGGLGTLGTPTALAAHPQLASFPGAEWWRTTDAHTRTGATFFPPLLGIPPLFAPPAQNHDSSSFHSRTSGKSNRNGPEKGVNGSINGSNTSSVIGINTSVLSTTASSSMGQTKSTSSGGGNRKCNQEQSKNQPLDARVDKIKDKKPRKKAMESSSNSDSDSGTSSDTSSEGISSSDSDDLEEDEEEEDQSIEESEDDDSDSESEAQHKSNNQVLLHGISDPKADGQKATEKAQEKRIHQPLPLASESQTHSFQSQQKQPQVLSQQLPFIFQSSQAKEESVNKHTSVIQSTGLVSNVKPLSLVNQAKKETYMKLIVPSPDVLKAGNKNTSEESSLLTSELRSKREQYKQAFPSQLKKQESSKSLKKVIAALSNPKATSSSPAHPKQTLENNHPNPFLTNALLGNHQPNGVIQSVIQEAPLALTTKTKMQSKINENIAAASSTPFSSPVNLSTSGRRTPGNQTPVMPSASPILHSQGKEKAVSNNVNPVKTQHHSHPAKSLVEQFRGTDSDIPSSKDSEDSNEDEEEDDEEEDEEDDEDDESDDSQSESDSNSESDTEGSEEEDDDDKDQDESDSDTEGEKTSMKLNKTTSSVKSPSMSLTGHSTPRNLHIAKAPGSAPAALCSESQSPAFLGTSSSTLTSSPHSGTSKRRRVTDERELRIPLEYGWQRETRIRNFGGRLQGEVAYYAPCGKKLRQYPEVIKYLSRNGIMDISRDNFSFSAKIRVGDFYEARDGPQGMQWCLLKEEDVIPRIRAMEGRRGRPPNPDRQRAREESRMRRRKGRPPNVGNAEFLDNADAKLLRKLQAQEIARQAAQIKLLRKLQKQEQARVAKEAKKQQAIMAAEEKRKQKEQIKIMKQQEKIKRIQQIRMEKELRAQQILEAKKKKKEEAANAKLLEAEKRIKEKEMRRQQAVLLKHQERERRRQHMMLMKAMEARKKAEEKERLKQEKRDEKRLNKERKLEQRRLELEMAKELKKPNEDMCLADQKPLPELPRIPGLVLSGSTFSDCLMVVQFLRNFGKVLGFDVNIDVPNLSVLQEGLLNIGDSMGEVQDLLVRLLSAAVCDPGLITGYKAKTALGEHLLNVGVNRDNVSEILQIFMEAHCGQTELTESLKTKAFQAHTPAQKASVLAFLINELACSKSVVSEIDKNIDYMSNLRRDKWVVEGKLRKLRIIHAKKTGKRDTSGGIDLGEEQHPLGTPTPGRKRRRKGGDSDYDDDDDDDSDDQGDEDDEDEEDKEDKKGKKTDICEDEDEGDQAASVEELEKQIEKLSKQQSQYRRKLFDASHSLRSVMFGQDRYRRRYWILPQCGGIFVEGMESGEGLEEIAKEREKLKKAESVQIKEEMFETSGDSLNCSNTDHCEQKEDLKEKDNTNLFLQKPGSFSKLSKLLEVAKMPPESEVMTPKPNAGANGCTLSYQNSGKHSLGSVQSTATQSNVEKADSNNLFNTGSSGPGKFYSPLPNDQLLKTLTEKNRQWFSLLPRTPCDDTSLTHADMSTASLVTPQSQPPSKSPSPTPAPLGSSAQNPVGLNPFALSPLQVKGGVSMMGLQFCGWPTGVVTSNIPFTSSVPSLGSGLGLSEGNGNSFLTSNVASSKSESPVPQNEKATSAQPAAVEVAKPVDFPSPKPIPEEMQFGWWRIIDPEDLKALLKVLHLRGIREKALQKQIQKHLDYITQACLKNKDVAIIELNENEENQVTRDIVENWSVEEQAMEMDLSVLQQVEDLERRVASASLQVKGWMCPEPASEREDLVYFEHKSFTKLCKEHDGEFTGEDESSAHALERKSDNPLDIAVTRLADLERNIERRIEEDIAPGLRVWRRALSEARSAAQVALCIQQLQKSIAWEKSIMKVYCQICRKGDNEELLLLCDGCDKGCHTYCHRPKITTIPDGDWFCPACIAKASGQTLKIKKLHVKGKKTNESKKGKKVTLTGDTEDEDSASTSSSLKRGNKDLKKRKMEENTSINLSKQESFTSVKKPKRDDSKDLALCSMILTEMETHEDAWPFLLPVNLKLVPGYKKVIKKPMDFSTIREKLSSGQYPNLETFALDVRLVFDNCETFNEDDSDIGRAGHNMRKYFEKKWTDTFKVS

| Compound | Potency | activity change, negative = inhibition |
| --- | --- | --- |
| C/C(N)=C(/C#N)C(=O)CSc1nnc(NC(C)C)s1 | inconclusive: 79.4 µM [inhibitor, single point] | – |
| CCOC(=O)C1=C(CSc2nc3c(cc2C#N)CN(C)CC3)OC(N)=C(C#N)C1c1ccc(F)cc1 (stereo unspecified) | inconclusive: 89.1 µM [inhibitor, single point] | – |
| CC1=NN(c2ccccc2C(=O)O)C(=O)C1N=Nc1ccccc1 (stereo unspecified) | inconclusive: 50.1 µM [inhibitor, partial curve] | – |
| CCOc1cc(/C=C2\C(=O)N(CCC#N)N=C2C)ccc1OCC(N)=O | – | inactive: -7.45% |
| O=C(NCc1ccccc1)c1ccc2c(=O)[nH]c3c(C(=O)NCC4CCCO4)sc(=S)n3c2c1 (stereo unspecified) | active: 39.8 µM | – |
| CCCc1cc(=O)[nH]c(Nc2ccc(N3CCCCC3)cc2)n1 | active: 50.1 µM | – |
| COCCCn1cnnc1SCc1nc2sc(C(C)=O)c(C)c2c(=O)[nH]1 | inconclusive: 56.2 µM [inhibitor, partial curve] | – |
| CC1=C/C(=N\OS(=O)(=O)c2ccccc2)C(C(C)C)=CC1=O | active: 35.5 µM | – |
| CC(C)c1nnc(NC(=O)C2CCCN2C(=O)Nc2ccccc2F)s1 (stereo unspecified) | inconclusive: 89.1 µM [inhibitor, partial curve] | – |
| C=CCOc1ccc(C(=O)/C=C2/C(=O)Nc3ccccc32)cc1 | – | inactive: -38.7% |
| Cc1cccc(C)c1OCc1cc(=O)n2c3c(sc2n1)CCCC3 | – | inactive: 22.2% |
| CCN(CC)c1ccc(C(=O)OCC(=O)Nc2sccc2C#N)cc1 | inconclusive: 79.4 µM [inhibitor, single point] | – |
| COc1cc(/C=N/Nc2ccccn2)cc(OC)c1O | – | inactive: -17% |
| CSCC[C@H](Nc1ncnc2sc(C)c(C)c12)C(=O)O | inconclusive: 10 µM [inhibitor, single point] | – |
| CN1CCc2c(sc(NC(=O)c3ccc(S(=O)(=O)N4CCc5ccccc54)cc3)c2C(N)=O)C1 | inconclusive: 79.4 µM [inhibitor, single point] | – |
| Cc1cc(/C([O-])=C(/C(=S)Nc2ccc(F)cc2)[n+]2ccccc2)c(C)n1-c1ccc(F)cc1 | active: 44.7 µM | – |
| COc1ccc(CNc2ccccc2SC)cc1OC | inconclusive: 50.1 µM [inhibitor, single point] | – |
| COC(=O)c1ccc(-n2c(C)cc(C(=O)CSc3cccc[n+]3[O-])c2C)cc1 | – | inactive: -25.7% |
| COc1ccc(-n2cc(-c3ccccc3)c3c(NC4CCCC4)ncnc32)cc1 | inconclusive: 20 µM [inhibitor, full curve] | – |
| CN(C)S(=O)(=O)N1CCC(Oc2cccc(C(=O)N3CCCCCCC3)c2)CC1 | – | inactive: 2.23% |
| Cn1cccc1/C=N/N1CCN(c2ccccc2)CC1 | active: 50.1 µM | – |
| CC(C)CC(=O)N1CCN(Cc2ccccc2[N+](=O)[O-])CC1 | active: 25.1 µM | – |
| O=C(O)c1cccc2c1C(=O)c1ccccc1-2 | – | inactive: -7.95% |
| COc1ccc(OC)c(CNC(=O)c2cnc3c(C)cccn3c2=O)c1 | – | inactive: 4.21% |

| Compound | Potency | activity change, negative = inhibition |
| --- | --- | --- |
| O=C(/C=C/c1ccc([N+](=O)[O-])cc1)Nc1ncc([N+](=O)[O-])s1 | active: 35.5 µM | – |
| CC(C)(C)c1ccc(S(=O)(=O)NNC(=O)C2CCN(Cc3cccc(F)c3)CC2)cc1 | inconclusive: 70.8 µM [inhibitor, single point] | – |
| COC(=O)c1cccc(C23CC4(C2)[C@H](CN(C)[C@@H]4c2ccccc2)C3c2ccccc2)c1 (stereo partly specified) | inconclusive: 70.8 µM [inhibitor, partial curve] | – |
| Cc1ccc(Cl)cc1N1CCN(C(=O)c2noc(C)c2[N+](=O)[O-])CC1 | inconclusive: 79.4 µM [inhibitor, partial curve] | – |
| CCCC(=O)Nc1ccc2nc(SCC(=O)Nc3nccs3)sc2c1 | inconclusive: 100 µM [inhibitor, single point] | – |
| CC(=O)c1ccc(Nc2ccc([N+](=O)[O-])c3nonc23)cc1 | inconclusive: 70.8 µM [inhibitor, single point] | – |
| O=C(NNC(=O)c1ccco1)c1csc(N2CCOCC2)n1 | inconclusive: 100 µM [inhibitor, single point] | – |
| COc1ccc(C)cc1NC(=O)C1CCN(S(=O)(=O)c2ccc3c(c2)C(C)(C)C(=O)N3C)CC1 | inconclusive: 63.1 µM [inhibitor, partial curve] | – |
| CCCNC(=O)c1ccccc1NC(=O)c1ccc2c(c1)NC(=O)C(C)S2 (stereo unspecified) | inconclusive: 79.4 µM [inhibitor, single point] | – |
| CCCCN1C(C(=O)Nc2cc(C)on2)=C(O)c2ccccc2S1(=O)=O | inconclusive: 89.1 µM [inhibitor, single point] | – |
| O=[N+]([O-])c1ccc2nc(Cl)nc(-c3ccccc3)c2c1 | – | inactive: -28.9% |
| Nc1ccc(S(=O)(=O)NNC(=O)C(=O)NNc2ccccn2)cc1 | inconclusive: 89.1 µM [inhibitor, single point] | – |
| C[C@@H](C(=O)N1CCN(C(=O)OC(C)(C)C)CC1)n1cc(CCCN=C(NC(=O)OC(C)(C)C)NC(=O)OC(C)(C)C)nn1 | inconclusive: 89.1 µM [inhibitor, single point] | – |
| Cc1cc2c(c(=O)n1CCN(C)C)C(c1ccncc1)C(C#N)=C(N)O2 (stereo unspecified) | – | inactive: 0.463% |
| O=C(c1ccco1)N1CCN(c2cc(N3CCOCC3)c(F)cc2[N+](=O)[O-])CC1 | inconclusive: 70.8 µM [inhibitor, single point] | – |
| O=C(O)c1ccccc1-c1nc2ccccc2c(=O)[nH]1 | inconclusive: 89.1 µM [inhibitor, single point] | – |
| COc1cc(-c2nc3ccc4ccccc4c3c3c2CCC3)cc(OC)c1O | inconclusive: 50.1 µM [inhibitor, partial curve] | – |
| COc1ccc(NC(=O)Nc2cccc([N+](=O)[O-])c2)cc1Cl | inconclusive: 56.2 µM [inhibitor, partial curve] | – |
| O=C1C2C3C=CC(C3)C2C(=O)N1CCc1ccccc1 (stereo unspecified) | inconclusive: 5.62 µM [inhibitor, single point] | – |
| CCC(=O)NC(c1cccs1)c1cc(Br)c2cccnc2c1O (stereo unspecified) | active: 70.8 µM | – |
| CCOC(=O)C1CCN(c2nc(-c3ccccc3)nc3c2oc2ccccc23)CC1 | inconclusive: 89.1 µM [inhibitor, single point] | – |
| COCCNC(=O)CSc1nc(-c2ccccc2)[nH]c1-c1ccc(OC)cc1 | inconclusive: 50.1 µM [inhibitor, partial curve, poor fit] | – |
| CCOc1ccccc1Nc1nc(-c2sc(NC(=O)c3cccc(Cl)c3)nc2C)cs1 | inconclusive: 89.1 µM [inhibitor, single point] | – |
| COc1ccc2cc(C(c3nnnn3CC3CCCO3)N3CCOCC3)c(=O)[nH]c2c1 (stereo unspecified) | – | inactive: -0.771% |

| Compound | Potency | activity change, negative = inhibition |
| --- | --- | --- |
| COc1ccc(C(C)=O)cc1Cn1nnc(-c2ccccc2Br)n1 | active: 56.2 µM | – |
| O=C(COC(=O)C1COc2ccccc2O1)Nc1cccc(F)c1 (stereo unspecified) | inconclusive: 89.1 µM [inhibitor, single point] | – |
| Cc1[nH][nH]c(=O)c1C(c1c(C)[nH][nH]c1=O)c1cn(C)c2ccccc12 | inconclusive: 56.2 µM [inhibitor, partial curve] | – |
| CCOCCCn1c(=N)c(C(=O)NC2CCCC2)cc2c(=O)n3cc(C)ccc3nc21 | inconclusive: 89.1 µM [inhibitor, single point] | – |
| CC(C)COc1ccc(-c2nn(-c3ccccc3)cc2/C=C2/SC(=S)N(CC(=O)O)C2=O)cc1 | active: 44.7 µM | – |
| Cc1nc(Sc2ccc(Cl)cc2)c(C#N)c(C)c1[N+](=O)[O-] | inconclusive: 15.8 µM [inhibitor, partial curve] | – |
| CC(=O)c1ccc(N=Nc2c(C)[nH]n(-c3ccccc3)c2=O)cc1 | active: 31.6 µM | – |
| COc1ccc(N2CCN(C3CCCCC3NS(=O)(=O)c3ccccc3)CC2)cc1 (stereo unspecified) | active: 17.8 µM | – |
| CCc1c(C)c2cc(Cl)c(O)c(CN(CC)CC)c2oc1=O | – | inactive: 9.01% |
| Cc1cc(/C=N/NC(N)=S)c(C)n1-c1ccc(Br)cc1 | inconclusive: 39.8 µM [inhibitor, partial curve] | – |
| O=C(COC(=O)c1ccccn1)NCc1ccc(Cl)cc1Cl | inconclusive: 89.1 µM [inhibitor, single point] | – |
| Nc1ccc2nc(-c3ccc(-c4nc5ccc(N)cc5[nH]4)cc3)[nH]c2c1 | inconclusive: 70.8 µM [inhibitor, single point] | – |
| Cc1ccc(/C=N/N2CCN(Cc3ccccc3)CC2)cc1 | inconclusive: 39.8 µM [inhibitor, partial curve] | – |
| Cc1ccc(/C=C/C(=O)c2ccc(C)cc2)cc1 | – | inactive: 11.2% |
| O=C(c1ccc(Cl)c(S(=O)(=O)N2CCCC2)c1)N1CCN(c2ccccc2)CC1 | – | inactive: -20.7% |
| O=[N+]([O-])c1ccccc1OCCCN1CCOCC1 | – | inactive: -4.77% |
| CCCCCCCc1c(O)nc(SCCN(C)C)[nH]c1=O | inconclusive: 100 µM [inhibitor, partial curve] | – |
| O=C(c1ccccc1)N1CCN(C2CCCCC2)CC1 | inconclusive: 20 µM [inhibitor, full curve] | – |
| CCN(CCCc1ccccc1)CCCc1ccccc1 | inconclusive: 56.2 µM [inhibitor, partial curve] | – |
| COc1ccc(C(=O)Oc2ccc(/C=N/Nc3ccc(Cl)c(C(=O)O)c3)cc2OC)cc1 | active: 50.1 µM | – |
| COc1ccc(C2C(C(=O)Nc3ccc(Cl)cc3)=C(C)Nc3nc(SCc4cccc(C)c4)nn32)cc1OC (stereo unspecified) | inconclusive: 89.1 µM [inhibitor, single point] | – |
| Cn1nc([N+](=O)[O-])nc1Oc1ccccc1N | – | inactive: 4.42% |
| CCOC(=O)C(=O)N/N=C(/c1ccccc1)c1ccc(OC)cc1 | – | inactive: -11.1% |
